From PubChem BioAssay AID624417 (National Center for Advancing Translational Sciences (NCATS), 2012)
Out of some 410,000 compounds screened, about 6,400 (1.6%) were called active. The inconclusive results got no clear call from the source; some entries with a clear call stand among them for comparison. Calls follow the shape of the dose curve; as a rule, active = well fitted inhibition curve with a large enough effect; inconclusive = small, poorly fitted or top-dose-only effect; inactive = no such curve, though single readings can be large or run the other way. Potencies of inconclusive entries are left out as doubtful fits.
Also: nearly all actives have a fitted effect of over 55% in size.
Potency is read from the fitted curve at half-maximal effect; tags tell the direction and shape of the fitted curve.

What follows are molecules tested against Glucagon-like peptide 1 receptor (Homo sapiens) (UniProt P43220) (assay: qHTS of GLP-1 Receptor Inverse Agonists (Inhibition Mode)). Settings: HEK293 GLP-1R CRE-luciferase, luminescence, 24 h, GLP-1R form is constitutively active; series mostly up to 38.3 µM.
Chain of UniProt P43220 (P43220 whole entry, looked up): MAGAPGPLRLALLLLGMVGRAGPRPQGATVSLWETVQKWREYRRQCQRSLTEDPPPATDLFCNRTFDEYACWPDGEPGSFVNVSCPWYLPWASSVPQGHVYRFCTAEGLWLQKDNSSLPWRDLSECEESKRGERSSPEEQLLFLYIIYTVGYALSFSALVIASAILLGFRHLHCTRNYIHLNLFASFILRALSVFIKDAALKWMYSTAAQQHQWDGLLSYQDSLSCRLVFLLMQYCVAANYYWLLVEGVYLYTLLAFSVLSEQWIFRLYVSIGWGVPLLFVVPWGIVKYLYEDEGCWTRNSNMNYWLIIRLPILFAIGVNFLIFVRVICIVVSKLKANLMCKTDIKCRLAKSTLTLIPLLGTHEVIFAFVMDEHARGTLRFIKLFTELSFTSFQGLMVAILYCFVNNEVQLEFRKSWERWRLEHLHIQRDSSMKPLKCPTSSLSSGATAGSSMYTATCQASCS
In short: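 Inverse agonists were sought by their lowering of basal cAMP reporter luciferase output in HEK293 cells stably carrying constitutively active human GLP-1R, after 24 h compound treatment.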
With `Cc1ccccc1CSCCNC(=O)COc1ccc(Cl)cc1` the Potency was inconclusive [inhibitor, single point].
In the case of `Cc1ccc([C@@H]2CC=C(C(=O)O)[C@H](c3ccc(Br)cc3)N2S(=O)(=O)c2ccc(C)cc2)cc1`, the Potency is reported as inconclusive [inhibitor, partial curve, poor fit].
With `CN(C)Cc1c(-c2ccc(Cl)cc2)nc2ccc(Cl)cn12` the Potency was inconclusive [inhibitor, partial curve, poor fit].
In the case of `CN(CC(=O)Nc1c(Cl)cccc1Cl)C(=O)c1ccccc1Cc1ccccc1`, the Potency is reported as inconclusive [inhibitor, partial curve, poor fit].
For `COc1ccccc1N(C)S(=O)(=O)c1ccc(C)c(C(=O)N2CCCCCC2)c1`, the Potency was inconclusive [inhibitor, partial curve, poor fit].
With `Cc1ccc(C(O)c2ncc(-c3cccc4ccccc34)[nH]2)cc1F` (stereo not drawn) the Potency was inconclusive [inhibitor, single point].
`C=CCN(C(=O)c1csnn1)C(C(=O)NC1CCCCC1)c1ccc(Cl)cc1` (stereo not drawn) was tested, and the Potency was inconclusive [inhibitor, partial curve, poor fit].
`Cc1ccc(S(=O)(=O)N(CCc2ccccc2)CC(=O)Nc2ccccc2C)cc1` was tested, and the Potency was inconclusive [inhibitor, partial curve, poor fit].
For `COc1ccc(OC)c(-c2noc(N3CCN(c4ccc(Cl)cc4)CC3)n2)c1`, the Potency was “inactive”.
In the case of `CCOC(=O)c1ccccc1NC(=O)C(C)Oc1ccccc1` (stereo not drawn), the Potency is reported as inconclusive [inhibitor, single point].
For `O=C(N/C(=C/c1ccc(Cl)cc1)C(=O)N1CCOCC1)c1ccccc1`, the Potency was inconclusive [inhibitor, single point].
`CCOc1ccc(NCc2cccn2-c2nnc(N3CCC(C(=O)NCCCN4CC(C)CC(C)C4)CC3)s2)cc1` (stereo not drawn) was tested, and the Potency was inconclusive [inhibitor, partial curve, poor fit].
For `CC(C)(C)c1ccc(C(=O)OCc2c(-c3ccccc3)ncc3ccccc23)cc1`, the Potency was inconclusive [inhibitor, single point].
With `CC(C)C[C@@H](CN1CCC[C@@H]1CN1C(=O)C(=O)NC[C@@H]1Cc1ccccc1)N1C[C@H](Cc2ccccc2)N(CC2CCCCC2)C(=O)C1=O` the Potency was inconclusive [inhibitor, single point].
For `CC1(C(=O)NS(=O)(=O)Cc2cccc(Cl)c2)CCN1C(=O)Cc1ccc(Cl)cc1Cl` (stereo not drawn), the Potency was “inactive”.
For `CN(C)CC(C)(C)CNCc1cc(=O)oc2ccc3ccccc3c12`, the Potency was inconclusive [inhibitor, partial curve, poor fit].
`O=C(OCc1ccccc1)N1CCC2CC1c1cc(N3CCCCC3)ccc12` (stereo not drawn) was tested, and the Potency was inconclusive [inhibitor, single point].
`O=[N+]([O-])c1ccc(NCCCNS(=O)(=O)c2ccccc2)cc1` was tested, and the Potency was inconclusive [inhibitor, single point].
In the case of `Cc1cnc(C(=O)N2CCc3c([nH]c4ccccc34)C2c2ccc(F)cc2)cn1` (stereo not drawn), the Potency is reported as inconclusive [inhibitor, partial curve].
In the case of `Cc1ccc(NC(=O)c2oc3c(c2C)-c2[nH]ncc2CC3)c(Cl)c1`, the Potency is reported as “inactive”.
For `CCSC1=N/C(=C\c2cccnc2)C(=O)N1c1ccccc1`, the Potency was inconclusive [inhibitor, single point].
`CC(=O)Nc1cccc(NC(=O)c2ccccc2Cl)c1` was tested, and the Potency was “inactive”.
For `CC(C)(Cc1ccccc1)NC(=O)C(=O)c1cn(CC(=O)N2CCOCC2)c2ccccc12`, the Potency was inconclusive [inhibitor, single point].
With `CCN(CC)CCCNC(=O)CCC(=O)NNc1nc2ccccc2c2nc(C)nn12` the Potency was “inactive”.
For `O=C(NCCc1csc(-c2ccc(C(F)(F)F)cc2)n1)c1cccs1`, the Potency was inconclusive [inhibitor, single point].
For `CC(C)(C)NC(=O)C(c1ccccc1)n1c(=O)c(-c2cc3ccccc3[nH]2)nc2ccccc21` (stereo not drawn), the Potency was inconclusive [inhibitor, single point].
`COc1ccc(C2CC(=O)c3c(O)cc(O)cc3O2)c(CC=C(C)C)c1OC` (stereo not drawn) was tested, and the Potency was inconclusive [inhibitor, single point].
In the case of `O=C(NC(=S)Nc1nc2c(s1)CSc1ccccc1-2)c1ccccc1`, the Potency is reported as “inactive”.
In the case of `COc1ccc(-n2cnc3c(sc4nccc(N(C)C)c43)c2=O)cc1`, the Potency is reported as inconclusive [inhibitor, partial curve, poor fit].
With `CCCCc1nnc(NC(=O)c2cccc(S(=O)(=O)N3CCN(C)CC3)c2)s1` the Potency was inconclusive [inhibitor, single point].
`COc1cc(-c2ccc3sc(-c4ccsc4)c(C#CCO)c3c2)cc(OC)c1OC` was tested, and the Potency was inconclusive [inhibitor, partial curve, poor fit].
For `CCOc1cccc(CC(=O)N2CCc3c([nH]c4ccc(OC)cc34)C2c2ccc(F)cc2)c1OCC` (stereo not drawn), the Potency was “inactive”.
For `COCCNC(=S)N1CCN(C(c2ccccc2)c2ccccc2)CC1`, the Potency was inconclusive [inhibitor, partial curve].
For `OC1(c2ccc(Cl)cc2)CCN(Cc2cn[nH]c2-c2ccc(F)cc2)CC1`, the Potency was inconclusive [inhibitor, partial curve, poor fit].
For `CC(=O)Nc1nc(C)nc(-c2ccccc2OC(C)=O)n1`, the Potency was “inactive”.
In the case of `COc1ccc(CN(C)C(C)C(=O)Nc2ccc(S(=O)(=O)N3CCCCC3)cc2)c(OC)c1` (stereo not drawn), the Potency is reported as inconclusive [inhibitor, single point].
`O=C(c1ccc2c(=O)n3c(nc2c1)CCCCC3)N1CCN(c2ccc([N+](=O)[O-])cc2)CC1` was tested, and the Potency was inconclusive [inhibitor, partial curve, poor fit].
In the case of `Cc1ccn2c(Nc3ccc4c(c3)OCCO4)c(-c3ccccc3O)nc2c1`, the Potency is reported as inconclusive [inhibitor, single point].
`COc1ccc(C(C(=O)Nc2ccc(F)cc2)N(C(=O)Cn2nnc3ccccc32)C2CC2)cc1` (stereo not drawn) was tested, and the Potency was inconclusive [inhibitor, partial curve, poor fit].
With `COc1ccccc1CNC(=O)c1c(N)n(CCCN2CCOCC2)c2nc3ccccc3nc12` the Potency was “inactive”.
`Cc1ccc(N(CC(=O)NCc2ccc(F)cc2)C(=O)c2ccco2)cc1C` was tested, and the Potency was inconclusive [inhibitor, single point].
For `COc1ccccc1Nc1nc(N)nc(CCl)n1`, the Potency was “inactive”.
`O=C(c1ccc(NS(=O)(=O)c2ccc(F)cc2)cc1)N1CCCCCC1` was tested, and the Potency was inconclusive [inhibitor, single point].
For `CCC(=O)c1ccc(OCC(=O)Nc2nc(-c3cccnc3)cs2)cc1`, the Potency was “inactive”.
For `O=C(NCc1ccc(F)cc1)c1cc(C2CCCCN2C(=O)CCc2ccccc2)on1` (stereo not drawn), the Potency was inconclusive [inhibitor, single point].
`CCN(CC)S(=O)(=O)c1ccc2c(c1)[nH]c(=S)n2CC` was tested, and the Potency was “inactive”.
In the case of `O=C(c1cc(C2CC2)nn1-c1ccccc1)N1CCN(Cc2c(F)cccc2Cl)CC1`, the Potency is reported as inconclusive [inhibitor, single point].
`CCc1nc(C)cn1S(=O)(=O)c1ccc(Cl)c(Cl)c1Cl` was tested, and the Potency was inconclusive [inhibitor, partial curve, poor fit].
With `CC1(Cc2ccccc2C#N)C(=O)Nc2ccc(-c3ccc4[nH]ccc4c3)cc21` (stereo not drawn) the Potency was inconclusive [inhibitor, full curve, poor fit].
For `CCc1nc2c(OCc3ccc(Cl)cc3Cl)cccn2c1N(C)C(C)=O`, the Potency was inconclusive [inhibitor, single point].
In the case of `COc1cc(C2C(C#N)=C(N)Oc3c2ccc2ccccc32)ccc1OCC(=O)Nc1cccc(C)c1` (stereo not drawn), the Potency is reported as inconclusive [inhibitor, single point].
`CC(=O)Nc1cccc(-c2ccnc3c2CC(C)(C(=O)Nc2ccc(C(C)C)cc2)O3)c1` (stereo not drawn) was tested, and the Potency was inconclusive [inhibitor, single point].
For `Cc1ccc2c(Cl)c(C(=O)NCC3CCCO3)sc2c1` (stereo not drawn), the Potency was “inactive”.
In the case of `O=C1COc2ccc(C(=O)CSc3nnc(Cc4cccs4)n3-c3ccccc3)cc2N1`, the Potency is reported as inconclusive [inhibitor, full curve].
For `CCN(CC(=O)Nc1cc(Cl)ccc1C)C(=O)CCOc1ccc(C)cc1`, the Potency was inconclusive [inhibitor, partial curve, poor fit].
With `CCOc1ccc(C(=O)NCC(c2cccs2)S(=O)(=O)c2ccccc2)cc1` (stereo not drawn) the Potency was inconclusive [inhibitor, single point].
In the case of `O=C(NCCN1CCOCC1)NC1(C(F)(F)F)Oc2ccc(Cl)cc2O1` (stereo not drawn), the Potency is reported as “inactive”.
`CCn1c(O)c(C=NC2CCCC(C)C2C)sc1=S` (stereo not drawn) was tested, and the Potency was inconclusive [inhibitor, single point].
With `Cc1cccc(C(=O)N2CCc3cc(CNC(=O)CSc4ccccc4)ccc32)c1` the Potency was “inactive”.
`CCCN1C(=O)/C(=C/c2ccc(C)o2)SC1=Nc1ccc(OC)cc1` was tested, and the Potency was inconclusive [inhibitor, single point].
With `O=S(=O)(Nc1ccc(-n2cccc2)cc1)c1ccc(F)cc1` the Potency was inconclusive [inhibitor, single point].
With `Nc1nc(Nc2ccccc2)nc(NCc2ccco2)c1[N+](=O)[O-]` the Potency was inconclusive [inhibitor, single point].
For `O=C(CCl)N1CCN(S(=O)(=O)Cc2ccccc2)CC1`, the Potency was inconclusive [inhibitor, partial curve, poor fit].
